Reference: PubChem BioAssay AID1508624 (National Center for Advancing Translational Sciences (NCATS), 2021)
Hit rate of the full screen: of about 48,000 compounds, about 120 (0.25%) were called active. Not shown: some 4% with an inconclusive outcome. Calls come from the whole dose curve; as a rule, active = well fitted activation curve with a large enough effect; inconclusive = small, poorly fitted or top-dose-only effect, or another doubt; inactive = no such curve, though single readings can be large or run the other way. This is one part of the list.

Experiment: Primary qHTS for Identification of Small Molecule Activators of Huntingtin-Antisense Promoter Activity; note: nearly all actives have a fitted effect of over 55% in size
Conditions: HEK293 HTT-AS promoter firefly luciferase reporter (activity 0% = vehicle and -100% = no light), 24 h; series mostly up to 57.5 µM; activity change, positive = activation: at the top concentration
Procedure, shortened: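 Firefly luciferase readout (Dual-Glo, 10 min RT) after 24 h, 37 °C compound exposure (final up to 57.5 uM) of HEK293 reporter cells cultured 24 h beforehand; PTC124 at 50 uM final as control inhibitor; activity scaled vehicle 0%, zero RLU -100%.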

Activity change, positive = activation, inactive:
O=C(COc1ccc(Cl)cc1)Nc1ccccc1OCc1cc(=O)n2ccccc2n1 -3.51%, CCc1ccc(NC(=O)C(CC)n2c(=O)c(-c3ccccc3NC(C)=O)nc3ccccc32)cc1 (stereo not given) -35.3%, Cc1ccc(NC(=O)C2CC(=O)N(c3ccc(OC(C)C)cc3)C2)cc1 (stereo not given) -14.7%, CCOC(=O)c1c(C)c(-c2ccccc2)n(CC(=O)NC(CC)Cc2ccccc2)c1C (stereo not given) -4.95%, CCN(CC)c1ccc(NC(=O)C2CCN(S(=O)(=O)c3cnc[nH]3)CC2)c(C)c1 -2.95%, Cc1ccc2oc(-c3ccc(C)c(NC(=O)/C=C/c4ccc(Cl)cc4)c3)nc2c1 7.9%, Cc1cc(C)cc(NC(=O)Cn2cc(C(=O)c3cccs3)c3ccccc32)c1 -27.7%, CC(=O)N1CCC(N(Cc2ccco2)C(=O)Nc2ccc(C)c(Cl)c2)CC1 -22.1%, Cc1ccc2[nH]c3c(=O)n(CC(=O)N(CCN(C)C)Cc4ccccc4)ncc3c2c1 -15.6%, Clc1cccc(C(c2ccc3nc[nH]c3c2)n2ccnc2)c1 (stereo not given) -1.45%, CC(C)(C)c1nc2c3cc[nH]c(=O)c3c3cc(F)ccc3c2[nH]1 -7.2%, CCOC(=O)CNC(=O)N1[C@H](c2cccs2)[C@@H](C)C(=O)[C@@H](C)[C@@H]1c1cccs1 -20.3%, CCOc1ccc(N2CC(NC(=O)C3CCCCC3)CC2=O)cc1 (stereo not given) -13.7%, COc1cc(NC(=O)c2nc3nc(C)cc(C(F)F)n3n2)c(OC)cc1Cl 0.114%, CC(C)NCC(O)c1ccc2ccccc2c1 (stereo not given) -6.08%, Cc1ccc(CNC(=O)c2ccc(CN3CC(=O)N4CCCCC4C3=O)cc2)cc1 (stereo not given) -10.7%, Cc1nnc(N2C(=O)c3oc4ccccc4c(=O)c3C2c2ccc(Cl)cc2)s1 (stereo not given) 2.57%, Cc1c(C(=O)OC2CCCCCC2)[nH]c2c1C(=O)CC(c1ccc(Cl)cc1)C2 (stereo not given) -8.58%, Cc1ccc2c(c1)C(=O)OC(C(=O)Nc1ncc(Cc3ccc(Cl)cc3)s1)C2 (stereo not given) -4.82%, O=S(=O)(O)c1ccc2cc(N=Nc3cc(S(=O)(=O)O)c4cccnc4c3O)ccc2c1 -14.9%, Cc1cccc(C)c1-n1ncc(C(=O)NC2CCCC2)c1C1CCN(C(=O)OC(C)(C)C)CC1 14.2%, CCOc1ccc(NC(=O)NCc2cccn2Cc2ccccc2)cc1 -16%, O=C(c1ccc2c(c1)CCN2S(=O)(=O)c1ccc(Cl)cc1)N1CCN(c2ccc(F)cc2)CC1 -11.9%, CC(=O)O[C@]1(C(C)=O)CC[C@H]2[C@@H]3C[C@H](C)C4=CC(=O)CC[C@]4(C)[C@H]3CC[C@@]21C -10.7%, O=C(COc1ccc(Cl)cc1Cl)Nc1cccc2cccnc12 2.86%, C=Cc1ccc(Cn2c(=O)n(-c3cccc(Cl)c3)c(=O)c3c4c(sc32)CN(C(C)=O)CC4)cc1 -34.5%, O=C(NCCc1ccc(Cl)cc1)c1ccc2c(c1)N(Cc1ccc(Cl)cc1)C(=O)CS2 -39.6%, COCCCNC(=O)CCn1c(=O)c2ccccc2n(CC(=O)Nc2cc(Cl)ccc2OC)c1=O -13.8%, CCN(Cc1ccccc1)Cc1c(O)ccc2oc(C)c(C(=O)Nc3ccc(C)cc3C)c12 -51.1%, CN1C(C(=O)Nc2cccc(O)c2)=CC(c2ccco2)=NS1(=O)=O -17.5%, Cc1cccc(N2CCn3c2nc2c3c(=O)n(C/C=C/c3ccccc3)c(=O)n2C)c1 -2.99%, CCCCN(CC)c1nc(-c2ccccc2F)nc2ccccc12 -7.71%, Cc1cc(C)c(NC(=O)Cn2nnc(S(=O)(=O)c3ccc(C)c(C)c3)c2N)c(C)c1 -15.9%, CC(C)c1ccc(NC(=O)N2c3ccccc3Sc3ccccc32)cc1 -29.2%, CCc1nnc(NC(=O)c2nc(SCc3ccccc3F)ncc2Cl)s1 1.22%, CCCCOc1ccc(Cn2c(=O)oc3ccc(C)cc32)cc1OC -19%, COc1ccc(S(=O)(=O)N2CCN(c3cccc(C)c3C)CC2)c2ccccc12 -10.7%, O=S1(=O)c2ccccc2N(Cc2ccc(Cl)cc2)c2ccccc21 -33.5%, COc1ccc2c(c1)c(=O)c(C(=O)c1ccc(F)cc1)cn2CC(=O)Nc1ccc2c(c1)OCO2 -26.7%, Cc1ccc(S(=O)(=O)N(CC(=O)NCCSc2ccc(Cl)cc2)c2ccccc2C)cc1 -15.9%, O=C(CCCCCn1c(=O)c2sccc2n(Cc2ccc(Cl)cc2)c1=O)NCc1ccc2c(c1)OCO2 -28%, Cc1cc(Br)ccc1NC(=O)c1sc2nc3n(c(=O)c2c1C)CCCC3 17.8%, CC(C)CCNC(=O)Cn1c(-c2cccs2)cc2cc(F)ccc21 -16.5%, Cc1ccc(NC(=O)C2CCN(c3nnc(C)c4c(C)n(-c5ccccc5)nc34)CC2)c(Cl)c1 -26.1%, COc1ccc(Cl)cc1C(=O)Nc1nnc2n1CCS2 -10.1%, CCc1ccc(CNC(=O)C2COc3ccc(OC)cc3C2)cc1 (stereo not given) -12.6%, CCOC(=O)c1c(C)sc(-c2c(-c3ccccc3)[nH]c3[nH]c(=O)[nH]c(=O)c23)c1O -6.16%, CN(Cc1ccccc1)C(=O)CSc1nnc(-c2cccc(Cl)c2)o1 3.56%, COc1ccc(-c2noc(-c3ccc(N4CCOCC4)c([N+](=O)[O-])c3)n2)cc1 -11.3%, CCc1ccc(S(=O)(=O)NCc2ccc3c(c2)CCN3C(=O)c2ccc(C)cc2)cc1 -57.9%, CC1=C(C(=O)Nc2ccccc2C)C(c2cccs2)n2nc(SCc3ccccc3)nc2N1 (stereo not given) -19.3%, O=C(Cn1ncc2c(Cl)cccc21)NCc1cccc(Cl)c1 10.2%, CCc1ccc(-n2nc(CO)c(C(=O)NCCOC)n2)cc1 27.4%, Cc1scc(CN2CCN(c3ccccc3F)CC2)c1C -3.38%, CN(C(=O)CC(=O)Nc1ccc2nc3n(c(=O)c2c1)CCCCC3)c1ccccc1F -47.1%, CC(C)(C)C1CCc2c(sc(NC(=O)c3cccc(Cl)c3)c2C(=O)NCc2ccco2)C1 (stereo not given) -34.6%, CC(=O)c1ccc(NC(=O)C2CCN(c3nnc(C)c4c(C)n(-c5ccccc5)nc34)CC2)cc1 -20.4%, Cc1ccc(-c2cc(C(=O)N3CCN(S(=O)(=O)c4ccc(Br)cc4)CC3)[nH]n2)c(C)c1 -27.3%, CC(C)OCCCn1c(=O)c2ccccc2n2c(-c3ccccc3)nnc12 7.41%, O=C(Cc1ccccc1)Nc1sc2c(c1C(=O)Nc1cccc(Cl)c1)CCCCC2 -9.57%, CCc1nn2c(=O)cc(COC(=O)Cc3ccccc3)nc2s1 9.19%, O=C(O)C1=NC(C(=O)O)CC(C=CN2c3cc(O)c(OC4OC(CO)C(O)C(O)C4O)cc3CC2C(=O)O)=C1 (stereo not given) 3.94%, Cc1ccc(S(=O)(=O)c2cn(Cc3ccccc3)c3cc(N4CCCCC4)c(F)cc3c2=O)cc1 -5.16%, CC(C)CCOc1ccc(Cn2c(=O)oc3ccccc32)cc1 3.46%, COc1ccc(NC(=O)CSC2=Nc3ccccc3C3=NC(CC(=O)NCCc4ccccc4)C(=O)N23)cc1 (stereo not given) -2.41%, O=C(NCc1ccco1)c1ccc(Cn2c(SCc3ccccc3)nc3cccnc32)cc1 5.89%, COc1cc(OC)c(NC(=O)CCS(=O)(=O)c2ccc3c(c2)oc(=O)n3C)cc1Cl 1.45%, Cc1ccc(C2CC(=O)Nc3cc4c(cc32)OCCO4)cc1Br (stereo not given) -40.8%, CCOc1ccc(CCNC(=O)c2cc(=O)[nH]c3ccc(S(=O)(=O)N4CCCCC4C)cc23)cc1OCC (stereo not given) -21.1%, Fc1ccccc1-c1nc(N2CCN(c3cccc(Cl)c3)CC2)c2ccccc2n1 -34.1%, COCCNC(=O)Cn1ccc2cc(S(=O)(=O)N3CCCCCC3)ccc21 -14.7%, CCOC(=O)N1CCC(n2c(=O)[nH]c3cc(Cl)ccc32)CC1 -77.1%, CCn1c(=O)c2c(nc3n2CCN3c2ccc(OC)cc2)n(C)c1=O 9.57%, Cc1ccc(-c2noc(CCC(=O)N(C)c3ccccc3F)n2)cc1 -17.8%, Cc1cccc(NC(=O)Cn2c(=O)n(Cc3ccc4c(c3)OCO4)c(=O)c3oc4ccccc4c32)c1C -8.99%, Cc1ccc(CNS(=O)(=O)c2ccc(C(=O)N(C)C)s2)cc1 -5.08%, CC(C)(C)C1CCc2c(sc(NC(=O)C3c4ccccc4Oc4ccccc43)c2C(N)=O)C1 (stereo not given) -16.1%, CCn1cc(S(=O)(=O)c2cc(C)cc(C)c2)c(=O)c2cc(F)c(N3CCCCC3)cc21 -7.86%, CCC(=O)N1c2ccc(S(=O)(=O)CCC(=O)NCc3ccccc3OC)cc2CC1C (stereo not given) -11.4%, COC(=O)c1nnn(CC(=O)NC(=O)Nc2ccc(F)cc2)c1C(=O)OC 13%, CC(=O)N1CCc2cc(Br)cc(S(=O)(=O)N3CCC(C(=O)Nc4cccc(C)c4C)CC3)c21 -11.3%, Cc1ccc(CNC(=O)Nc2cc(C(=O)NCc3cccc(F)c3)ccc2N2CCCC2)cc1 -23.6%, O=C(Nc1ccc(S(=O)(=O)N2CCC(c3nc4ccccc4s3)CC2)cc1)c1ccccc1 -12.4%, CC1CCCCN1Cc1c(O)ccc2c(=O)c(-c3ccccc3Cl)c(C(F)(F)F)oc12 (stereo not given) -8.66%, CCCCn1c(CNC(=O)C23CC4CC(CC(C4)C2)C3)nnc1SCC(=O)Nc1ccc(C)cc1 -33.1%, COCCSc1nc2c([nH]c3ccccc32)c(=O)n1-c1ccc(OC)c(OC)c1 -27.7%, Cc1cccc(CC(=O)N2CC(=O)Nc3ccc(Br)cc3C2c2ccc(F)cc2)c1 (stereo not given) -37.8%, CCc1cccc(-n2nnc(-c3nsc(NC(=O)c4cccc(OC)c4)n3)c2C)c1 -27.2%, O=C(Cn1ncc2c3ccccc3n(Cc3ccccc3F)c2c1=O)NCc1ccccc1Cl -16.2%, Cc1cc2c(cc1S(=O)(=O)Nc1cccc(C#N)c1)OCC(=O)N2 -10.9%, COc1ccc(-n2nc(C(=O)N3CCCCC3C)c3c4ccccc4n(C)c3c2=O)cc1Cl (stereo not given) -18.6%, COc1cccc(C(=O)Nc2ccccc2C(=O)OCc2cc(=O)n3c4c(sc3n2)CCCC4)c1 -15.4%, COc1ccc(CNC(=O)CN(C)S(=O)(=O)c2ccc3nc(C)sc3c2)cc1 -8%, CC(C)N(C(=O)CSc1cn(CC(=O)N2CCCCCC2)c2ccccc12)C(C)C -29%, Cc1coc2c(C)c3oc(=O)c(CCC(=O)NCCc4ccccc4F)c(C)c3cc12 -4.4%
